Screen size: about 91,000 compounds; about 290 (0.32%) were called active. This list was built around the results that the source calls inconclusive (neither active nor inactive); the mix of calls is not that of the screen. Calls follow the shape of the dose curve; as a rule, active = well fitted inhibition curve with a large enough effect; inconclusive = small, poorly fitted or top-dose-only effect; inactive = no such curve, though single readings can be large or run the other way. Potencies beside an inconclusive call are fits to weak or partial responses and may not hold up.
Target: Single-stranded DNA cytosine deaminase (Homo sapiens) (UniProt Q9GZX7)
Experiment: Primary qHTS assay for inhibitors of Activation Induced Cytidine Deaminase (AID): AID signal; also: nearly all actives have a fitted effect of over 25% in size
Conditions: AID deamination FRET fluorescence, UDG-coupled, 4 h; series mostly up to 115 µM
Potency is read from the fitted curve at half-maximal effect; tags tell the direction and shape of the fitted curve.

Chain of UniProt Q9GZX7 (Q9GZX7 whole entry, looked up): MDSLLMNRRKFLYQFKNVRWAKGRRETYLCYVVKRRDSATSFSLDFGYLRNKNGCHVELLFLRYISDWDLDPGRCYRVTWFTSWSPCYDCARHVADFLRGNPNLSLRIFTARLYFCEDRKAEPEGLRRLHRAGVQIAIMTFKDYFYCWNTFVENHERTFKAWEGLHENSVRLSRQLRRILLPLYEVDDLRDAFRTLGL

Row | SMILES | Potency
1 | COc1ccc(NC(=O)c2cc(Br)c(O)c(OC)c2)cc1NC(C)=O | inactive
2 | O=C1c2ccccc2-c2ccccc21 | inactive
3 | CCCCCn1c(-c2cccc(C)c2)nc2ccccc21 | inconclusive: 56.2 µM [inhibitor, partial curve, poor fit]
4 | CCS(=O)(=O)c1cccc(C(=O)N2CCN(c3nc4c(C)ccc(Cl)c4s3)CC2)c1 | inconclusive: 12.6 µM [inhibitor, full curve]
5 | CCOc1ccc(NC(=O)Cn2c(=O)c(CNc3ccccc3)cc3cc4c(cc32)OCCO4)cc1 | inconclusive: 100 µM [inhibitor, single point]
6 | Cc1ccc(-c2cc3ccccc3n2C)cc1 | inactive
7 | CCOC(=O)c1ccc(NC(=O)CCc2c(C)nc3c(c(C)nn3C(C)(C)C)c2C)cc1 | inconclusive: 39.8 µM [inhibitor, full curve, poor fit]
8 | CC(NC(=O)NC(C(N)=O)C(N)=O)c1ccccc1C(F)(F)F (stereo not drawn) | inactive
9 | C=Cc1ccc(Cn2c(C(=O)O)c(CNCc3ccccc3)c3ccc(OC)cc32)cc1 | inconclusive: 100 µM [inhibitor, partial curve, poor fit]
10 | CC(C)CCNC(=O)c1nn(C)c2c1CSc1ccccc1-2 | inconclusive: 31.6 µM [inhibitor, partial curve, poor fit]
11 | O=C(/C=C/Nc1ccc(Cl)cc1)C(F)(F)F | inactive
12 | CCOc1ccc(CC(=O)NCCc2csc(-c3ccc(Cl)cc3)n2)cc1 | inconclusive: 89.1 µM [inhibitor, single point]
13 | N#CC1(NC(=O)CSc2c(Cl)cccc2Cl)CCCCC1 | inactive
14 | Cc1ccc(CSc2nc(-c3ccc(C(C)(C)C)cc3)nc3cc(=O)[nH]n23)cc1 | inconclusive: 50.1 µM [inhibitor, partial curve, poor fit]
15 | CCOCCCNC(=O)c1cn(CC)c2ccc(S(=O)(=O)N3CCc4ccccc4C3)cc2c1=O | inconclusive: 70.8 µM [inhibitor, partial curve, poor fit]
16 | CN(Cc1ccccc1)C(=O)c1cccc(NC(=O)c2nsc3ccccc23)c1 | inconclusive: 15.8 µM [inhibitor, full curve, poor fit]
17 | C/C(=N\NC(=O)c1ccc(C)c(C)c1)c1ccc(C)cc1C | inactive
18 | CCn1c(SCc2ccc(F)cc2Cl)nc(=O)c2c(C(=O)OC)cc(C3CC3)nc21 | inconclusive: 56.2 µM [inhibitor, partial curve, poor fit]
19 | COc1cccc(-c2oc3ccc(C)cc3c(=O)c2O)c1 | inconclusive: 79.4 µM [inhibitor, single point]
20 | CCOCCCn1c(SCC(=O)Nc2ccc(CC)cc2)nc2ccccc2c1=O | inconclusive: 17.8 µM [inhibitor, full curve, poor fit]
21 | COc1cc(NC(=O)c2cc(S(=O)(=O)N3CCCCC3)c[nH]2)cc(OC)c1OC | inactive
22 | COc1cccc(Nc2nc3ccccc3nc2NS(=O)(=O)c2cccs2)c1 | inconclusive: 70.8 µM [inhibitor, partial curve, poor fit]

Row | SMILES | Potency
23 | CC(C)CCNC(=S)Nc1ccc(SC(F)F)cc1 | inactive
24 | CC(C)CC(=O)Nc1ccc(-c2csc(N)n2)cc1 | inactive
25 | c1coc(-c2nc(-c3ccc4c(c3)OCCCO4)cs2)c1 | inactive
26 | Cc1c(C(=O)OC2CCCCCC2)[nH]c2c1C(=O)CC(c1ccccc1)C2 (stereo not drawn) | inconclusive: 100 µM [inhibitor, single point]
27 | Cc1ccc(-c2cc3nccc(-c4cc([N+](=O)[O-])ccc4O)n3n2)cc1 | inconclusive: 3.16 µM [inhibitor, full curve, poor fit]
28 | Cc1ccc(C(C)C)c(OCC(=O)NCc2ccc(Cn3cccn3)cc2)c1 | inactive
29 | CCOc1ccc(NC(=O)Nc2cc3c(cc2N2CCCCC2)n(C)c(=O)n3C)cc1 | inactive
30 | CCOC(=O)N1CCN(c2ncc3c(n2)CC(c2ccc(Cl)cc2)CC3=O)CC1 (stereo not drawn) | inconclusive: 44.7 µM [inhibitor, partial curve, poor fit]
31 | Cc1ccc(C)c(N2CCN(C(=O)c3cc(S(=O)(=O)N4CCC(C)CC4)cn3C)CC2)c1 | inconclusive: 22.4 µM [inhibitor, full curve, poor fit]
32 | CNc1oc(-c2ccccc2OC)nc1S(=O)(=O)c1ccc2c(c1)OCCO2 | inactive
33 | CCN(Cc1ccccc1)C(=O)Cn1c(=O)c2c(ncn2C)n(C)c1=O | inactive
34 | COc1ccc(CC(=O)NCC(c2cccs2)S(=O)(=O)c2ccc(Cl)cc2)cc1 (stereo not drawn) | inconclusive: 89.1 µM [inhibitor, partial curve, poor fit]
35 | CCCn1c2ccccc2c2cnn(CC(=O)N(Cc3ccccc3)C(C)C)c(=O)c21 | inconclusive: 14.1 µM [inhibitor, full curve, poor fit]
36 | O=C(CN1C(=O)COc2ccc(S(=O)(=O)N3CCCCCC3)cc21)N1CCN(c2cccc(C(F)(F)F)c2)CC1 | inconclusive: 11.2 µM [inhibitor, full curve, poor fit]
37 | Cc1cccc(C)c1OCC(=O)Nc1c(C(=O)c2ccc(Br)cc2)oc2ccccc12 | inconclusive: 2.82 µM [inhibitor, full curve, poor fit]
38 | COc1ccc(-c2noc(N3CCC(C(=O)N(C)c4cc(Cl)ccc4OC)CC3)n2)cc1 | active: 79.4 µM
39 | CC(C)c1ccc(C2C(C#N)=C(N)Oc3c2ccc2ccccc32)cc1 (stereo not drawn) | inactive
40 | CCC1=Nc2cc(C(=O)NCc3ccc(C)cc3)ccc2Sc2ccc(C)cc21 | inconclusive: 25.1 µM [inhibitor, partial curve, poor fit]
41 | Cc1ccc2nc(CN3CCN(C(=O)Nc4ccc(C)c(F)c4)CC3)oc2c1 | inconclusive: 39.8 µM [inhibitor, partial curve, poor fit]
42 | O=C(c1cccs1)c1cn(CCOc2ccccc2Cl)c2ccccc12 | inconclusive: 28.2 µM [inhibitor, partial curve, poor fit]
43 | Cc1cc(OCC(=O)N(Cc2ccc(N(C)C)cc2)C2CCS(=O)(=O)C2)cc(C)c1Cl (stereo not drawn) | inconclusive: 31.6 µM [inhibitor, full curve]

Source: PubChem BioAssay AID1347428 (National Center for Advancing Translational Sciences (NCATS), 2020)
